Measured values reported in the antibiotic and cytotoxicity screens of Wong et al. (2023).
This is one part of the list.

These molecules were tested on HSkMC (human skeletal muscle cells) (assay: cytotoxicity call (relative viability < 0.9)). Conditions: 10 µM.

Row | SMILES | cytotoxicity call
1 | Nn1c(Cn2ccnc2)nnc1Cn1ccnc1 | inactive
2 | C=C1c2cccc(O)c2C(=O)[C@@H]2C(=O)[C@]3(O)C(=O)[C@@H](C(N)=O)C(=O)[C@@H](N(C)C)[C@@H]3[C@@H](O)[C@H]12 | inactive
3 | O=C(CN1CCNCC1)N1CCCC1 | inactive
4 | Cc1noc(C)c1S(=O)(=O)N(C)C[C@H]1Oc2ccc(NS(=O)(=O)c3cccs3)cc2CC(=O)N([C@@H](C)CO)C[C@@H]1C | inactive
5 | Cn1cc(C[C@@H](N)C(=O)O)c2ccccc21 | inactive
6 | CNC(=S)NCc1ccco1 | inactive
7 | C=CCOC(=O)[C@@H]1[C@H]2C(=O)O[C@H](c3ccccc3)[C@H](c3ccccc3)N2[C@H](c2ccc(OCCOC(=O)[C@H]3C[C@H]4C(=O)N[C@@H](CC(C)C)C(=O)N4[C@H]3c3ccc(O)cc3)cc2)[C@@]12C(=O)Nc1ccc(I)cc12 | inactive
8 | C[C@H]1CN([C@@H](C)CO)C(=O)c2cc(NS(=O)(=O)c3cn(C)cn3)ccc2O[C@H]1CN(C)S(C)(=O)=O | inactive
9 | Cc1ccc(S(=O)(=O)Nc2ccc3c(c2)C(=O)N([C@@H](C)CO)C[C@H](C)[C@H](CN(C)Cc2ccncc2)OCCCC[C@@H](C)O3)cc1 | inactive
10 | C[C@H]1CCCCO[C@H](CN(C)C(=O)NC2CCCCC2)[C@@H](C)CN([C@@H](C)CO)C(=O)c2cc(NC(=O)CCC(F)(F)F)ccc2O1 | inactive
11 | COc1ccc(CN(C)C[C@H]2OCCCC[C@@H](C)Oc3ccc(NC(=O)CCC(F)(F)F)cc3C(=O)N([C@H](C)CO)C[C@@H]2C)cc1 | inactive
12 | COC(=O)C1=CO[C@@H](O[C@@H]2O[C@H](CO)[C@@H](O)[C@H](O)[C@H]2O)[C@@H]2[C@@H](C)[C@@H](OC(=O)/C=C/c3ccc(O)cc3)[C@@H](O)[C@H]12 | inactive
13 | C[C@H](CO)N1C[C@H](C)[C@H](CN(C)C(=O)c2ccc(F)cc2)OCc2ccccc2-c2c(n(C)c3ccccc23)C1=O | inactive
14 | COCC#Cc1ccc2c(c1)O[C@H](CN(C)C(=O)C1CCOCC1)[C@H](C)CN([C@@H](C)CO)S2(=O)=O | inactive
15 | C[C@@H]1CCCCO[C@H](CN(C)Cc2ccccc2)[C@@H](C)CN([C@H](C)CO)C(=O)c2cc(NC(=O)Nc3ccc(F)cc3)ccc2O1 | inactive
16 | C[C@@H]1CCCCO[C@@H](CN(C)C(=O)Nc2ccc3c(c2)OCO3)[C@H](C)CN([C@@H](C)CO)C(=O)c2cc(NS(=O)(=O)c3ccc(Cl)cc3)ccc2O1 | inactive
17 | C[C@@H]1CN([C@H](C)CO)S(=O)(=O)c2ccc(-c3ccc(C#N)cc3)cc2O[C@H]1CN(C)C(=O)CN(C)C | inactive
18 | C[C@H]1CN([C@@H](C)CO)C(=O)Cc2cc(NC(=O)C3CC3)ccc2O[C@H]1CN(C)Cc1ccc(Oc2ccccc2)cc1 | inactive
19 | C[C@H](CO)N1C[C@H](C)[C@H](CN(C)S(=O)(=O)c2cn(C)cn2)Oc2ncc(Br)cc2C1=O | inactive
20 | C[C@@H]1CN([C@H](C)CO)C(=O)c2cc(NC(=O)Nc3ccc(C(F)(F)F)cc3)ccc2O[C@H]1CN(C)C(=O)Nc1ccccc1 | inactive
21 | C[C@@H]1CCCCO[C@@H](CN(C)C(=O)Nc2ccc3c(c2)OCO3)[C@@H](C)CN([C@@H](C)CO)C(=O)c2cc(NC(=O)Nc3cccc4ccccc34)ccc2O1 | inactive
22 | C[C@@H]1CCCCO[C@@H](CN(C)C(=O)c2ccccc2)[C@@H](C)CN([C@@H](C)CO)C(=O)c2cc(NC(=O)CCC(F)(F)F)ccc2O1 | inactive
23 | CCN(CC)c1ccc(N2CC=C[C@@]34O[C@@H]5/C=C\CC[C@H](C)OC(=O)[C@@H]5[C@H]3C(=O)N(CCO)[C@@H]4C2=O)cc1 | inactive
24 | OCCc1ccccc1 | inactive
25 | C[C@@H]1CN([C@@H](C)CO)S(=O)(=O)c2ccc(-c3cncnc3)cc2O[C@H]1CN(C)C(=O)CN(C)C | inactive
26 | C[C@@H]1CCCCO[C@@H](CN(C)C(=O)Nc2ccc(F)cc2)[C@H](C)CN([C@H](C)CO)C(=O)c2cc(NS(=O)(=O)c3ccccc3)ccc2O1 | inactive
27 | C[C@@H]1CN([C@@H](C)CO)S(=O)(=O)c2ccc(/C=C/c3ccccc3)cc2O[C@H]1CN(C)C(=O)Nc1cc(F)ccc1F | inactive
28 | CC1C2CCC3C4CC=C5CC(N(C)C)CCC5(C)C4CCC32CN1C (stereo not drawn) | inactive
